The source of these data is US20070105155A1 (Janssen / Centocor, published 2007).

For this assay, the target named is T1, TRPM8-2 fragment (rat TRPM8 M353-T690) (rat, UniProt Q8R455 353-690, 35S-methionine labelled).
T1 construct: In vitro translated from pAGA3; also called TRPM8-2/pAGA3; rTRPM8-2
The assay is described as follows: GST pull-down control (GST alone on beads), autoradiography, FIG. 1B. As for the experimental part:
Agarose-GSH beads (50% (vol./vol.)) bound with about 1 μg of GST or GST-CaM were incubated with 10 μl of ³⁵S-labelled TRPM8 fragment for 30 min at room temperature in a final volume of 200 μl of binding buffer. At the end of the incubation, the beads were washed three times with 1.0 ml of binding buffer and resuspended in 20 μl of 2× laemmli's sample loading buffer. Protein(s) bound to the beads, including the GST-CaM fusion protein, and possibly the ³⁵S-labelled TRPM8 fragment that interact with the GST-CaM fusion protein, were separated by SDS/PAGE followed by autoradiography.

B1: GST (other)
chain: not shown
notes: Negative control bait; also called glutathione S-transferase control
In the case of B1, the binding result is “no binding”.
